Measurements published in the supplement of paper PMC11417369.
± gives the standard deviation of the averaged measurements. The list shows a part of the results.

Tested on: PfAP2-LT AP2 domain (GST-tagged)
Experiment: gcPBM binding intensity (ln(normalized median fluorescence intensity)); higher = stronger DNA binding
Outline: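 DNA-binding domains from P. falciparum, fused to GST and produced in E. coli, were put on an Agilent 4 × 180k double-stranded probe array for 1 h in 1× PBS holding 1% milk, 0.2 mg/ml BSA, 0.5% salmon testes DNA and 0.03% Triton X-100. Probes were primer-extended, 36 bp long and drawn from intergenic genomic regions, with negative controls included. After Alexa488 anti-GST antibody detection and a 488 nm scan, binding intensity was set as the highest Masliner-normalised natural-log median intensity across replicate spots of either probe orientation.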

| Sequence | gcPBM binding intensity (ln) |
| --- | --- |
| TTTATTATTTTAACGTGTACAAGGTATATAATATTC [XGTACX_site5241] | 8.68 ± 0.42 |
| TAGGTAAATGCAAATTGGTTTAAATCAAAATATAAA [XGTACX_negctrl_site250] | 8.62 ± 0.47 |
| GTATCAAAAGAATACACACACACATACAGATATATA [CACACA_site5975] | 9.86 ± 0.18 |
| TGATATTATATATATACACACATGTATGTATTTATA [CACACA_site4874] | 9.01 ± 0.33 |
| AAAAATAAAAAATATAAAAATATAAAAATATAAAAA [XGTACX_negctrl_site51] | 8.57 ± 0.67 |
| TTATATTTTCTCCGCGTGCACATATGTATACTATAC | 9.2 ± 0.34 |
| TAGGGTAGTTATAATTGTACTTTTCTCCAAAAAAAA [XGTACX_site7321] | 8.31 ± 0.5 |
| TTTTTGTTTTTTTGTTTATCGTTCGTGACTACATGA [TGCATGCA_negctrl_site124] | 8.75 ± 0.62 |
| GAAATCTAAATAGAAACACACATATATATATATATA [CACACA_site3863] | 9.715 ± 0.035 |
| AAAAGAAATAAGGATACACACTATTGATAAAAGTAG [CACACA_site4309] | 8.96 ± 0.52 |
| TATATTATCAAAATGGTGCAATAATTTCTATATTAT [GTGCAC_site9772] | 8.46 ± 0.47 |
| TCGTGGGAAAATATTACACACATTTACTATAGTATC [CACACA_site5836] | 9.14 ± 0.35 |
| TATTACAAATAATACCGTACACAAATGTTTTTTTAT [XGTACX_site7977] | 8.63 ± 0.35 |
| CTTGGGAAGTATTCAGTGCAAAATATAAGCAGGTCA [GTGCAC_site9758] | 8.94 ± 0.63 |
| TGGATAATCAAAAATTGTACAAGTGTTGTTATTGGT [XGTACX_site8010] | 8.81 ± 0.4 |
| ACCGGTGGAACGTTTTGTACATATATAATAATATAT [XGTACX_site2143] | 8.92 ± 0.4 |
| ATATATATATTGAAAAGTACATATATATATATATTA [XGTACX_site1560] | 8.72 ± 0.31 |
| TACATAAATACATACATACACACATATATATATATA [CACACA_site2105] | 9.77 ± 0.24 |
| TTTTTTTTTATATATACACACAATAAATAAATATAA [CACACA_site2954] | 8.32 ± 0.44 |
| GGTTAAAAAAAGCATACACACTATCCTCTTTGCTCT [CACACA_site7246] | 9.07 ± 0.44 |
| CTTTTTTATTTTTCAACACACATAATAAATTTCTAT [CACACA_site1037] | 8.78 ± 0.49 |
| GAACCTTTAAAATACACACCCAAATCCTTTGAAATA [CACACA_site3630] | 8.88 ± 0.42 |
| ATATTTTACAAATGCACACATAATTTTTTTTTTTTT [CACACA_site2763] | 8.8 ± 0.46 |
| TAAATAAAATACAAATGTACATAAATAATAAATATA [XGTACX_site1813] | 8.87 ± 0.45 |
| ATATAAAAAATATAAGGTACACATATATGTAGATAT [XGTACX_site6792] | 9.24 ± 0.41 |
